The values that follow come from publication PMC4336329 (PLoS ONE, 2015).

The whole screen tested about 310,000 compounds, of which about 2,200 (0.71%) showed an effect of 50% or more. The effect is printed as a negative number. This is one part of the list.

Sequence of human ether-à-go-go-related gene (hERG) potassium channel (Q12809 whole entry, looked up): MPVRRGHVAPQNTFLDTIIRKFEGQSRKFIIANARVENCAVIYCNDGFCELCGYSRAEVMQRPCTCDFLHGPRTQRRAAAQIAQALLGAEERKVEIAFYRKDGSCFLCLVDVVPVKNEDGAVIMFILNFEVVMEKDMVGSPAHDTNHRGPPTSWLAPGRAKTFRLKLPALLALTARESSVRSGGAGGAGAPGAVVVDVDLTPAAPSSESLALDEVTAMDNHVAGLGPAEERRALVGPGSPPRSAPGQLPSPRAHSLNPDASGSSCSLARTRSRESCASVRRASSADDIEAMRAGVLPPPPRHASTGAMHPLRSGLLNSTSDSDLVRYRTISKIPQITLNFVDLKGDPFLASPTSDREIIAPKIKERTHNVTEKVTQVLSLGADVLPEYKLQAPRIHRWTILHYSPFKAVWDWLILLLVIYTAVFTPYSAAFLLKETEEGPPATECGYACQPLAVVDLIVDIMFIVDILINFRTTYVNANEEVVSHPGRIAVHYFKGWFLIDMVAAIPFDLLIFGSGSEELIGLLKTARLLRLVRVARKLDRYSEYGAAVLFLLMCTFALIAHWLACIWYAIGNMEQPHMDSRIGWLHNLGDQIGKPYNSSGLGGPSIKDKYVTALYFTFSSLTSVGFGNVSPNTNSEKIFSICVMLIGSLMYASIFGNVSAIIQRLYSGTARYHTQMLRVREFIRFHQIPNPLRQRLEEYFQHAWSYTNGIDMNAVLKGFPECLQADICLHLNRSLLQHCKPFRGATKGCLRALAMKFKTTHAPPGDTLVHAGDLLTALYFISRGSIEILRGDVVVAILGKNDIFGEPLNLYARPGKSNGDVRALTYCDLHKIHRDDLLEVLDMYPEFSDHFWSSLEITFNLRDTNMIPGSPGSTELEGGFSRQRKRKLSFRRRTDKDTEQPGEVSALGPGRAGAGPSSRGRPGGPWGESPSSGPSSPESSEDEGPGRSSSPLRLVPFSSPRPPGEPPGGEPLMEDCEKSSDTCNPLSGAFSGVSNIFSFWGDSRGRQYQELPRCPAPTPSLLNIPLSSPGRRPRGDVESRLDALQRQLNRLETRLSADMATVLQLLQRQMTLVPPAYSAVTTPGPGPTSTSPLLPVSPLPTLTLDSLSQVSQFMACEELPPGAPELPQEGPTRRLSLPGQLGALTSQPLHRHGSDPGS

The assay has as its target human ether-à-go-go-related gene (hERG) potassium channel (human, UniProt Q12809). Put plainly: primary screen, population patch clamp on CHO cells stably expressing hERG.
With `O=C(OCc1cc(=O)n2ccsc2n1)c1ccc(O)cc1O`, the “hERG current change (%, negative = inhibition) at 1uM” value is -5.95%.

On to `COc1cccc(-c2nc(N3CCCCC3)c3ccccc3n2)c1O`, for which the “hERG current change (%, negative = inhibition) at 1uM” value is 11.3%.

Regarding `COc1ccc(NC(=O)CC2C(=O)N(C)C(=S)N2CCc2ccccc2F)cc1` (stereo not shown), the “hERG current change (%, negative = inhibition) at 1uM” value is recorded as 8.21%.

`COc1ccc(-c2cc(C(F)(F)F)nc(-n3ccnc3)n2)cc1`: the “hERG current change (%, negative = inhibition) at 1uM” value is given as 11.5%.

Regarding `O=C(COc1cccnc1[N+](=O)[O-])NCc1ccco1`, the “hERG current change (%, negative = inhibition) at 1uM” value came to 2.02%.

On to `COc1cc2c(cc1OC)CN(C(=O)CN1C(=O)c3ccc([N+](=O)[O-])cc3C1=O)CC2`, for which the “hERG current change (%, negative = inhibition) at 1uM” value is 10.3%.

For `CSc1nc(NNC=O)cc(Oc2ccc(NC(C)=O)cc2)n1`, the “hERG current change (%, negative = inhibition) at 1uM” value is reported as 17.3%.

On to `CCO[C@@H]1OC(C(=O)N2CCOCC2)=C[C@H](c2cn(C(C)=O)c3ccccc23)[C@H]1CCCO`, for which the “hERG current change (%, negative = inhibition) at 1uM” value was 4.34%.

In the case of `O=[N+]([O-])c1cccnc1SCc1c(F)cccc1Cl`, the “hERG current change (%, negative = inhibition) at 1uM” value is 16.4%.

For `CC1CCCC(C)N1C(=O)COc1ccccc1F` (stereo not shown), the “hERG current change (%, negative = inhibition) at 1uM” value was determined as 14.2%.

Turning to `CS(=O)(=O)c1nc(-c2ccco2)cc(C(F)(F)F)n1`, the “hERG current change (%, negative = inhibition) at 1uM” value came to 14.4%.

`Cc1ccc(S(=O)(=O)N2CCC(C(=O)OC(C)C(=O)NCc3ccc4c(c3)OCO4)CC2)cc1` (stereo not shown): the “hERG current change (%, negative = inhibition) at 1uM” value was determined as 8.22%.

On to `Cn1nccc1C(=O)N1CCCC(C(=O)c2ccc(C(F)(F)F)cc2)C1` (stereo not shown), for which the “hERG current change (%, negative = inhibition) at 1uM” value is recorded as 13.1%.

Consider `O=C(O)C1C2CC2CN1C(=O)c1ccc(Cl)cc1Cl` (stereo not shown), for which the “hERG current change (%, negative = inhibition) at 1uM” value was found to be 11.1%.

As to `O=C(CN1C(=O)NC(c2ccccc2)(c2ccccc2)C1=O)N1CCN(c2ccc(F)cc2)CC1`, the “hERG current change (%, negative = inhibition) at 1uM” value was -2.31%.

On to `COc1ccc(-n2c(C)cc(C(=O)CSc3nnc(-c4cccs4)o3)c2C)cc1`, for which the “hERG current change (%, negative = inhibition) at 1uM” value is reported as -11.5%.

As to `Clc1ccc(-c2cn3c(n2)SCC3)cc1`, the “hERG current change (%, negative = inhibition) at 1uM” value worked out at 12.4%.

Turning to `O=C(Cc1ccccc1)N/N=C/c1ccc(-c2ccc([N+](=O)[O-])cc2)o1`, the “hERG current change (%, negative = inhibition) at 1uM” value stood at 4.87%.

Turning to `Cc1ccc(C(OC(=O)c2ccco2)C(=O)NC2CCCC2)cc1` (stereo not shown), the “hERG current change (%, negative = inhibition) at 1uM” value amounted to 11.3%.

Take `COc1ccc(CCNC(=O)CC2C(=O)NCCN2CC(C)(C)C)cc1` (stereo not shown): the “hERG current change (%, negative = inhibition) at 1uM” value is 8.21%.

Consider `COc1ccc(NC(=O)Cn2nnc(C(=O)NCc3ccco3)c2N)c(OC)c1`, for which the “hERG current change (%, negative = inhibition) at 1uM” value is reported as 22.8%.

Take `O=C(CN(C(=O)C1COc2ccccc2O1)c1ccccc1)NCC1CCCO1` (stereo not shown): the “hERG current change (%, negative = inhibition) at 1uM” value is given as -9.34%.

Consider `Cc1cccc(NC(=O)Cn2c(O)c(N=NC(=O)c3ccncc3)c3ccccc32)c1`, for which the “hERG current change (%, negative = inhibition) at 1uM” value was found to be 6.45%.

Take `COc1ccc(Nc2nc(-c3cccs3)nc3ccccc23)cc1S(=O)(=O)N1CCOCC1`: the “hERG current change (%, negative = inhibition) at 1uM” value is listed as 1.78%.

With `COC(=O)c1ccc(C23CC4(C2)[C@H](CN(Cc2ccc(C(F)(F)F)cc2)[C@@H]4c2ccccc2)C3c2ccccc2)cc1` (stereo partly shown), the “hERG current change (%, negative = inhibition) at 1uM” value was determined as 12.7%.

As to `Cc1ccccc1CN(C)CC(=O)Nc1ccccc1Oc1ccccc1`, the “hERG current change (%, negative = inhibition) at 1uM” value is reported as 14%.

Consider `COc1c2c(nc3ccccc13)OC(C(C)(O)CO)C2` (stereo not shown), for which the “hERG current change (%, negative = inhibition) at 1uM” value is listed as 16.2%.

Take `Cc1ccc2[nH]cc(C(=O)CN3CCOCC3)c2c1`: the “hERG current change (%, negative = inhibition) at 1uM” value is given as 24.4%.

For the compound `O=C(N/N=C/c1ccc(Cl)cc1Cl)c1ccc2nc[nH]c2c1`, the “hERG current change (%, negative = inhibition) at 1uM” value was 20.1%.

Consider `CCOc1ccc(NC(=O)CSc2n[nH]c(N)n2)c([N+](=O)[O-])c1`, for which the “hERG current change (%, negative = inhibition) at 1uM” value was found to be 7.15%.

Turning to `c1ccc(-n2nnnc2Oc2ccc(-n3ccnc3)cc2)cc1`, the “hERG current change (%, negative = inhibition) at 1uM” value was -36.9%.

Turning to `COc1ccc(N(CC(=O)NCCSc2ccccn2)S(=O)(=O)c2ccc(C)cc2)cc1OC`, the “hERG current change (%, negative = inhibition) at 1uM” value was -2.25%.

With `N#Cc1cc2ccccc2nc1SCC(=O)NC1CC1`, the “hERG current change (%, negative = inhibition) at 1uM” value was 10.7%.

`Cc1nc(SCC2(C)CC2(Cl)Cl)n[nH]1` (stereo not shown): the “hERG current change (%, negative = inhibition) at 1uM” value came to 17.9%.

As for `COc1cc(CN2CCNC(=O)C2CC(=O)NCCCC2CCCC2)cc(OC)c1` (stereo not shown), the “hERG current change (%, negative = inhibition) at 1uM” value is listed as 10%.

Consider `CSC1=N/C(=C\c2ccccc2C)C(=O)S1`, for which the “hERG current change (%, negative = inhibition) at 1uM” value is listed as 13.9%.

In the case of `CCN1C(=O)CSC1=Nc1ccccc1Cl`, the “hERG current change (%, negative = inhibition) at 1uM” value amounted to 12.1%.

On to `O=C(Cc1ccc([N+](=O)[O-])cc1)NCc1cccnc1`, for which the “hERG current change (%, negative = inhibition) at 1uM” value is given as 13.1%.

For `Cc1ccsc1C(=O)N1CCCC(CO)(Cc2ccccc2F)C1` (stereo not shown), the “hERG current change (%, negative = inhibition) at 1uM” value came out at 13.9%.

In the case of `COc1ccc(S(=O)(=O)N2CCN(C(=O)c3cc(-c4ccc(C)cc4)n[nH]3)CC2)cc1`, the “hERG current change (%, negative = inhibition) at 1uM” value is 1.74%.

`COc1ccc(CC(=O)NNc2ncnc3c2cnn3Cc2ccccc2)cc1OC`: the “hERG current change (%, negative = inhibition) at 1uM” value is 15.3%.

For `COc1ccc(C(=O)N/C(=C\c2ccccc2)C(=O)Nc2cccc(C(=O)O)c2)cc1`, the “hERG current change (%, negative = inhibition) at 1uM” value is listed as 17.9%.

In the case of `COc1cccc(N/C(N)=N/c2nc(C)cc(=O)[nH]2)c1`, the “hERG current change (%, negative = inhibition) at 1uM” value came to 10.9%.
